Source: US20210238256A1 (LEVICEPT, published 2021)

T1: BDNF (UniProt P23560 129-247)
T1 construct: also called brain-derived neurotrophic factor
T1 sequence (looked up): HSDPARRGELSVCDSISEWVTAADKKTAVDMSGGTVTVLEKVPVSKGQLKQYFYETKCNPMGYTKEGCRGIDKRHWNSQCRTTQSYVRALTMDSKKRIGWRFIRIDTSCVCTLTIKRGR

T2: NT-4 (UniProt P34130 81-210)
T2 construct: also called neurotrophin 4/5; NT-4/5
T2 sequence (looked up): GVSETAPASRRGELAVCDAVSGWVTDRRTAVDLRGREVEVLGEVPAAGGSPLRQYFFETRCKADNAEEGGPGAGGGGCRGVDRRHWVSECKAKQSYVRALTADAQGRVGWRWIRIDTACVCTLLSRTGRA

T3: NT-3 (UniProt P20783 139-257)
T3 construct: also called neurotrophin 3
T3 sequence (looked up): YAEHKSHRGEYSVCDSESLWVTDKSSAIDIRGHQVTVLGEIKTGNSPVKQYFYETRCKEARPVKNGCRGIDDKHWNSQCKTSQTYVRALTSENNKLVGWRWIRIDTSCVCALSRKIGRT


Tests used:
BDNF = target: T1, BDNF; experiment: SPR (Biacore affinity)
NT-4 = target: T2, NT-4; experiment: SPR (Biacore affinity)
NT-3 = target: T3, NT-3; experiment: SPR (Biacore affinity)
NGF [1] = target: T4, NGF (UniProt P01138 partial chain); experiment: SPR (Biacore affinity)
T4 construct: also called nerve growth factor; neurotrophic growth factor

NGF [2] = target: T4, NGF; experiment: SPR (Biacore), fusion protein captured on Protein A chip, NGF as analyte, single cycle kinetics, 1:1 model
NGF [3] = target: T4, NGF; experiment: SPR (Biacore T200), fusion protein captured on Protein A chip, NGF as analyte, single cycle kinetics, 1:1 model
Protocol: The single cycle kinetics method involved: [0208] injecting 0.625 nM of NGF onto the captured p75-Fc for 120 seconds at 30 μl/min [0209] this process was then repeated with an injection of NGF at 1.25 nM, followed by 2.5, 5 and 10 nM [0210] after the final concentration of NGF had been injected a 600 second dissociation phase was performed by flowing the running buffer (HBS-EP) over the chip.
Sequence 1 (SEQ ID No:1) p75-Fc was then captured onto the chip by performing a 38 second injection at a flow rate of 10 μl/in at a concentration of 10 μg/ml. This achieved the desired level of 430 RU. The single cycle kinetics procedure described above was then repeated.
The fusion protein-NGF binding data was analysed in the following manner using the Biacore T200 evaluation software v1: [0215] Data is recorded for the binding of NGF to the fusion protein on flow cell 2 (Fc=2) and for NGF flowing over the control flow cell 1 (Fc=1; protein A alone). [0216] The data from Fc=1 is then subtracted from Fc=2 to give “2-1” binding data. [0217] The 2-1 binding data for an injection of 0 nM (HBS-EP running buffer alone) is then subtracted from all the 2-1 binding data to control for any drifts in baseline throughout the experiment. [0218]

T4 sequence (P01138 122-241 limits assumed): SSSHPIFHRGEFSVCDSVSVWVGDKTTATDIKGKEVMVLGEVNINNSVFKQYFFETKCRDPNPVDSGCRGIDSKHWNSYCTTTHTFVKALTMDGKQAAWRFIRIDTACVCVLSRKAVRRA

| Binder | Kd (BDNF) [nM] | Kd (NT-4) [nM] | Kd (NT-3) [nM] | Kd (NGF [1]) [nM] | Kd (NGF [2]) [nM] | Kd (NGF [3]) [nM] |
| --- | --- | --- | --- | --- | --- | --- |
| p75NTR(NBP)-Fc fusion protein Sequence 15 (SEQ ID No:15) (Fc fusion) KEACPTGLYTHSGECCKACNLGEGVAQPCGANQTVCEPCLDSVTFSDVVSATEPCKPCTECVGLQSMSAPCVEADDAVCRCAYGYYQDETTGRCEACRVCEAGSGLVFSCQDKQNTVCEECPDGTYSDEANHVDPCLPCTVCEDTERQLRECTRWADAECEEIPGRWITRSTPPEGGGG[human IgG1 Fc with changes not shown] | 0.038 | 0.164 | 0.015 | 0.498 |  |  |
| Sequence 3 p75NTR-Fc (SEQ ID No:3) (Fc fusion, also called p75-Fc (G4x1)) KEACPTGLYTHSGECCKACNLGEGVAQPCGANQTVCEPCLDSVTFSDVVSATEPCKPCTECVGLQSMSAPCVEADDAVCRCAYGYYQDETTGRCEACRVCEAGSGLVFSCQDKQNTVCEECPDGTYSDEANHVDPCLPCTVCEDTERQLRECTRWADAECEEIPGRWITRSTPPEGSDSTAPSTQEPEAPPEQDLIASTVAGVVTTVMGGGG[human IgG1 Fc with changes not shown] | 0.048 | 0.181 | 0.014 |  | 0.36 |  |
| Sequence 1 p75NTR-Fc (SEQ ID No:1) (Fc fusion, It describes Fc-mediated dimerisation only in general terms, and uses a fusion protein molecular weight of 102,000 in the Rmax calculation) KEACPTGLYTHSGECCKACNLGEGVAQPCGANQTVCEPCLDSVTFSDVVSATEPCKPCTECVGLQSMSAPCVEADDAVCRCAYGYYQDETTGRCEACRVCEAGSGLVFSCQDKQNTVCEECPDGTYSDEANHVDPCLPCTVCEDTERQLRECTRWADAECEEIPGRWITRSTPPEGSDSTAPSTQEPEAPPEQDLIASTVAGVVTTVMGSSQPVVTRGTTDNDIEGRM[human IgG1 Fc not shown] |  |  |  |  |  | 0.4 |
